# Results reported in PubChem BioAssay AID2101 (National Center for Advancing Translational Sciences (NCATS), 2009).
# Screen size: about 330,000 compounds; about 300 (0.091%) were called active. Inconclusive means that the source gave no clear call. Such entries were picked first, then a sample of the others. Calls follow the shape of the dose curve; as a rule, active = well fitted inhibition curve with a large enough effect; inconclusive = small, poorly fitted or top-dose-only effect, or effect the other way, or another doubt; inactive = no such curve, though single readings can be large or run the other way. Potencies of inconclusive entries are left out as doubtful fits.
# Target: Lysosomal acid glucosylceramidase (Homo sapiens) (UniProt P04062)
# Assay: qHTS Assay for Inhibitors and Activators of N370S glucocerebrosidase as a Potential Chaperone Treatment of Gaucher Disease;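 as to activity change, negative = inhibition: 0% = full enzyme activity and -100% = no enzyme basal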
# Conditions: N370S GC spleen homogenate, 4MU-glucoside fluorescence; activity change, negative = inhibition: at 59.4 µM (top of the series) unless noted
# Potency is read from the fitted curve at half-maximal effect.
Structure (SMILES),Potency,"activity change, negative = inhibition"
COc1ccc(S(=O)(=O)N2CCN(S(=O)(=O)c3ccc4c(c3)OCCO4)CC2)cc1C,inactive,
COc1ccc2[nH]cc(CCNc3nc(-c4ccccc4OC)nc4ccccc34)c2c1,"inconclusive [inhibitor, partial curve]",
CC1(C(=O)OCC(=O)Nc2ccc3ccccc3c2)CC1(Cl)Cl (stereo unspecified),"inconclusive [activator, single point]",
CCCC1=C(C(=O)OCC)C(c2ccc(F)cc2)n2ncnc2N1 (stereo unspecified),"inconclusive [inhibitor, partial curve]",
COc1ccc(-c2nnc(SCC(=O)N3CCN(c4ccccc4)CC3)o2)cc1OC,"inconclusive [inhibitor, full curve, poor fit]",
CCN(CC)CCN(C(=O)c1ccc2c(c1)CCCC2)c1nc2c(C)cccc2s1,"inconclusive [inhibitor, single point]",
Cc1c(Cc2ccccc2)c(=O)oc2c(O)c(O)ccc12,inactive,
CC(C)(C)NC(=O)NC(=O)COC(=O)CNS(=O)(=O)c1ccc(Br)cc1Cl,,inconclusive: 23% [activator]
CCNc1ncc2nc(-c3cc(F)cc(F)c3)c(=O)n(CCC#N)c2n1,"inconclusive [activator, partial curve]",
CC1=C(OC(=O)c2ccccc2)C(C)(C)C(c2ccccc2)OC1=O (stereo unspecified),"inconclusive [activator, partial curve]",
CCOC(=O)c1c(NC(=O)CSc2nnc(-c3ccco3)o2)sc(C)c1C,"inconclusive [activator, single point]",
COc1ccc(CCNC(=O)c2cc3c(cc2Cl)N2CCCCCC2=NS3(=O)=O)cc1,inactive,
Cn1cc(C=C2C(=O)OC3(CCCCC3)OC2=O)c2ccccc21,"inconclusive [activator, partial curve]",
Cc1ccc(NC(=O)CN(c2ccc(Cl)cc2)S(=O)(=O)c2cc([N+](=O)[O-])ccc2Cl)c(C)c1,"inconclusive [inhibitor, single point]",
COc1cc2ccccc2cc1C(=O)Nc1ccc(C)cc1,"inconclusive [activator, partial curve]",
O=C(COC(=O)c1nc(Cl)ccc1Cl)NC1CCS(=O)(=O)C1 (stereo unspecified),"inconclusive [activator, single point]",
Cc1cc(C(=O)OCC(=O)NCCC(C)C)c2ccccc2n1,"inconclusive [inhibitor, full curve, poor fit]",
CN(C)CCCNc1c2ccccc2nc2ccccc12,"inconclusive [activator, partial curve]",
CC(C)C(c1nnnn1Cc1ccc(F)cc1)N1CCN(c2ccc(O)cc2)CC1 (stereo unspecified),"inconclusive [inhibitor, partial curve]",
O=C(NCc1ccccc1)C1=C[C@@H](C2CCCCC2)C[C@@H](OCc2ccc(CO)cc2)O1,"inconclusive [activator, partial curve]",
CN(C)S(=O)(=O)N(CC(=O)Nc1ccc2ccccc2c1)c1ccccc1,"inconclusive [activator, single point]",

Structure (SMILES),Potency,"activity change, negative = inhibition"
CC(C)c1nc2c(c(=O)c3ccccc3n2C)c(=O)n1CCc1ccccc1,"inconclusive [activator, partial curve]",
O=C(OC1CCOC1=O)c1cc(-c2cccs2)nc2ccccc12 (stereo unspecified),"inconclusive [activator, partial curve, poor fit]",
c1ccc(-n2c(-c3ccco3)nnc2-c2ccco2)cc1,inactive,
O=C1CC(NC(=O)C(F)(F)F)=NN1c1ccccc1,inactive,
O=C(CCn1c(=O)c2cccn2c2ccccc21)Nc1ccc(F)cc1,"inconclusive [activator, partial curve]",
Cc1cccc(C(=O)N(Cc2nc3ccccc3c(=O)[nH]2)C2CCCCC2)c1,"inconclusive [activator, partial curve]",
O=C(Nc1cnn(C23CC4CC(CC(C4)C2)C3)c1)c1cnn2c(C(F)(F)F)cc(-c3ccco3)nc12,"inconclusive [activator, full curve]",
Cc1ccc(NC(=O)COc2ccccc2C(=O)NCCc2ccccc2)cc1,"inconclusive [activator, full curve]",
C/C(=N\NC(=O)C1CC1)c1ccc(C)c(C)c1,inactive,
CN(C)CCCNS(=O)(=O)c1ccc(N2CCC(c3ccc(Cl)cc3)=N2)cc1,"inconclusive [activator, partial curve]",
Nc1cnc(Nc2ccc(Br)cc2)nc1N,"inconclusive [inhibitor, partial curve, poor fit]",
COc1cccc(NC(=O)CN2C(=O)C3(OCCCO3)c3ccccc32)c1,inactive,
CCN1CCN(c2cc(C)c3cc(NC(=O)c4cncc(Br)c4)ccc3n2)CC1,"inconclusive [inhibitor, partial curve]",
O=C(Oc1cccc(-n2cnnn2)c1)c1ccco1,"inconclusive [activator, partial curve]",
CCOc1ccc(Nc2nc(N)nc(CN3CCN(c4ccccc4F)CC3)n2)cc1,"inconclusive [inhibitor, partial curve]",
O=C(/C=C/c1ccccc1Cl)N(c1ccccn1)C1CCCCC1,"inconclusive [activator, partial curve]",
COc1ccccc1N1CCN(C(=S)Nc2ccc(S(=O)(=O)N3CCOCC3)cc2)CC1,"inconclusive [inhibitor, partial curve]",
CCNc1ccc(S(=O)(=O)N(C)C)cc1NCC(=O)Nc1ccccc1Br,"inconclusive [inhibitor, partial curve]",
O=C(Nc1cc(S(=O)(=O)N2CCOCC2)ccc1N1CCOCC1)c1cn2ccccc2n1,"inconclusive [activator, partial curve]",
CN(/N=C/c1cc(Br)cc(Br)c1O)c1cccc(C(F)(F)F)n1,"inconclusive [activator, single point]",
